In the supplement of paper PMC8728848:
This is one part of the list.

Experiments:
Assay in all cases: glycan array binding signal (z-score within array); higher = stronger binding
Conditions in all cases: glycan notation: IUPAC condensed, linker removed
[1] = target: Neu5Ac(a2-6)GlcNAc(b1-4)GlcNAc(b1-4)GlcNAc
Method in brief: (§1)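 Negative Z-scores can be read as non-binding. The Z-score is calculated within each array and then averaged across arrays of one protein sequence at different concentrations or buffers and across linkers. Arrays, 3228 in all, were curated from the Consortium for Functional Glycomics database and kept only where the protein sequence was available.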

Neu5Ac(a2-8)Neu5Ac = target: Neu5Ac(a2-8)Neu5Ac
Method in brief: as §1

[2] = target: Neu5Ac(a2-8)Neu5Ac(a2-3)Gal(b1-3)GalNAc(b1-4)[Neu5Ac(a2-3)]Gal(b1-4)Glc
Method in brief: as §1

[3] = target: Neu5Ac(a2-8)Neu5Ac(a2-3)Gal(b1-3)GalNAc(b1-4)[Neu5Ac(a2-8)Neu5Ac(a2-3)]Gal(b1-4)Glc
Method in brief: as §1

[4] = target: Neu5Ac(a2-8)Neu5Ac(a2-3)Gal(b1-4)Glc
Method in brief: as §1

[5] = target: Neu5Ac(a2-8)Neu5Ac(a2-3)Gal(b1-4)GlcNAc
Method in brief: as §1

[6] = target: Neu5Ac(a2-8)Neu5Ac(a2-3)[Gal(b1-3)GalNAc(b1-4)]Gal(b1-4)Glc
Method in brief: as §1

[7] = target: Neu5Ac(a2-8)Neu5Ac(a2-3)[GalNAc(b1-4)]Gal(b1-4)Glc
Method in brief: as §1

[8] = target: Neu5Ac(a2-8)Neu5Ac(a2-8)Neu5Ac
Method in brief: as §1

[9] = target: Neu5Ac(a2-8)Neu5Ac(a2-8)Neu5Ac(a2-3)Gal(b1-4)Glc
Method in brief: as §1

[10] = target: Neu5Ac(a2-8)Neu5Ac(a2-8)Neu5Ac(a2-3)[Gal(b1-3)GalNAc(b1-4)]Gal(b1-4)Glc
Method in brief: as §1

[11] = target: Neu5Ac(a2-8)Neu5Ac(a2-8)Neu5Ac(a2-3)[GalNAc(b1-4)]Gal(b1-4)Glc
Method in brief: as §1

[12] = target: Neu5Ac(a2-8)Neu5Ac(a2-8)Neu5Ac(a2-8)Neu5Ac(a2-3)[GalNAc(b1-4)]Gal(b1-4)Glc
Method in brief: as §1

[13] = target: Neu5Ac(a2-8)Neu5Gc(a2-3)Gal(b1-4)GlcNAc
Method in brief: as §1

[14] = target: Neu5Ac(b2-6)Gal(b1-4)GlcNAc
Method in brief: as §1

Neu5Ac(b2-6)GalNAc = target: Neu5Ac(b2-6)GalNAc
Method in brief: as §1

[15] = target: Neu5Ac9Ac(a2-3)Gal(b1-3)GlcNAc
Method in brief: as §1

[16] = target: Neu5Ac9Ac(a2-3)Gal(b1-4)GlcNAc
Method in brief: as §1

[17] = target: Neu5Ac9Ac(a2-6)Gal(b1-4)GlcNAc
Method in brief: as §1

[18] = target: Neu5Gc(a2-3)Gal(b1-3)GlcNAc
Method in brief: as §1

[19] = target: Neu5Gc(a2-3)Gal(b1-3)[Fuc(a1-4)]GlcNAc
Method in brief: as §1

Neu5Gc(a2-3)Gal(b1-4)Glc = target: Neu5Gc(a2-3)Gal(b1-4)Glc
Method in brief: as §1

[20] = target: Neu5Gc(a2-3)Gal(b1-4)GlcNAc
Method in brief: as §1

[21] = target: Neu5Gc(a2-3)Gal(b1-4)GlcNAc(b1-3)Gal(b1-4)GlcNAc(b1-2)Man(a1-3)[Neu5Gc(a2-3)Gal(b1-4)GlcNAc(b1-3)Gal(b1-4)GlcNAc(b1-2)Man(a1-6)]Man(b1-4)GlcNAc(b1-4)GlcNAc
Method in brief: as §1

[22] = target: Neu5Gc(a2-3)Gal(b1-4)[Fuc(a1-3)]GlcNAc
Method in brief: as §1

[23] = target: Neu5Gc(a2-6)Gal(b1-4)GlcNAc
Method in brief: as §1

Neu5Gc(a2-6)GalNAc = target: Neu5Gc(a2-6)GalNAc
Method in brief: as §1

[24] = target: Neu5Gc(a2-8)Neu5Ac(a2-3)Gal(b1-4)GlcNAc
Method in brief: as §1

[25] = target: Neu5Gc(a2-8)Neu5Gc(a2-3)Gal(b1-4)GlcNAc
Method in brief: as §1

[26] = target: Neu5Gc(a2-8)Neu5Gc(a2-3)Gal(b1-4)GlcNAc(b1-3)Gal(b1-4)GlcNAc
Method in brief: as §1

[27] = target: Neu5Gc(a2-8)Neu5Gc(a2-6)Gal(b1-4)GlcNAc
Method in brief: as §1

[28] = target: Neu5Gc(b2-6)Gal(b1-4)GlcNAc
Method in brief: as §1

B1: Als3-41 (Candida albicans) (protein)
chain: KTITGVFNSFNSLTWSNAATYNYKGPGTPTWNAVLGWSLDGTSASPGDTFTLNMPCVFKFTTSQTSVDLTAHGVKYATCQFQAGEEFMTFSTLTCTVSNTLTPSIKALGTVTLPLAFNVGGTGSSVDLEDSKCFTAGTNTVTFNDGGKKISINVDFERSNVDPKGYLTDSRVIPSLNKVSTLFVAPQCANGYTSGTMGFANTYGDVQIDCSNIHVGITKGLNDWNYPVSSESFSYTKTCSSNGIFITYKNVPAGYRPFVDAYISATDVNSYTLSYANEYTCAGGYWQRAPFTLRWTGYRNSDAGSNGIVIVATTRTVTDSTTAVTTLPFDPNRDKTKTIEILKPIPTTTITTSYVGVTTSYLTKTAPIGETATVIVD
[1]
  glycan array binding signal (z-score): -0.212
Neu5Ac(a2-8)Neu5Ac
  glycan array binding signal (z-score): -0.128
[2]
  glycan array binding signal (z-score): -0.246
[3]
  glycan array binding signal (z-score): -0.268
[4]
  glycan array binding signal (z-score): -0.292
[5]
  glycan array binding signal (z-score): -0.333
[6]
  glycan array binding signal (z-score): -0.006
[7]
  glycan array binding signal (z-score): -0.239
[8]
  glycan array binding signal (z-score): -0.29
[9]
  glycan array binding signal (z-score): -0.304
[10]
  glycan array binding signal (z-score): 0.009
[11]
  glycan array binding signal (z-score): -0.253
[12]
  glycan array binding signal (z-score): -0.297
[13]
  glycan array binding signal (z-score): -0.286
[14]
  glycan array binding signal (z-score): -0.251
Neu5Ac(b2-6)GalNAc
  glycan array binding signal (z-score): -0.297
[15]
  glycan array binding signal (z-score): -0.259
[16]
  glycan array binding signal (z-score): -0.38
[17]
  glycan array binding signal (z-score): -0.039
[18]
  glycan array binding signal (z-score): -0.189
[19]
  glycan array binding signal (z-score): 0.009
Neu5Gc(a2-3)Gal(b1-4)Glc
  glycan array binding signal (z-score): 0.09
[20]
  glycan array binding signal (z-score): -0.271
[21]
  glycan array binding signal (z-score): -0.118
[22]
  glycan array binding signal (z-score): -0.073
[23]
  glycan array binding signal (z-score): 0.561
Neu5Gc(a2-6)GalNAc
  glycan array binding signal (z-score): -0.133
[24]
  glycan array binding signal (z-score): -0.106
[25]
  glycan array binding signal (z-score): -0.268
[26]
  glycan array binding signal (z-score): -0.322
[27]
  glycan array binding signal (z-score): -0.217
[28]
  glycan array binding signal (z-score): -0.289
